# Test results published in PubChem BioAssay AID1508623 (National Center for Advancing Translational Sciences (NCATS), 2021).
# Hit rate of the full screen: of about 48,000 compounds, about 450 (0.94%) were called active. Inconclusive results (about 19%) are left out. Calls follow the shape of the dose curve; as a rule, active = well fitted inhibition curve with a large enough effect; inconclusive = small, poorly fitted or top-dose-only effect; inactive = no such curve, though single readings can be large or run the other way. This is one part of the list.
# Assay: Primary qHTS for Identification of Small Molecule Inhibitors of Huntingtin Promoter Activity; also: nearly all actives have a fitted effect of over 50% in size
# Settings: HEK293 HTT promoter firefly luciferase reporter (activity 0% = vehicle and -100% = no light), 24 h; series mostly up to 57.5 µM; activity change, negative = inhibition: at the top concentration
# In short: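 Firefly luciferase signal from promoter-reporter HEK293 cells was scaled between vehicle (0%) and zero RLU (-100%). Compounds were tested at final concentrations of up to 57.5 uM over 24 h at 37 degrees C. PTC124 at 50 uM final served as control inhibitor.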
row,SMILES,"activity change, negative = inhibition"
1,O=c1c(S(=O)(=O)c2ccccc2)cn(Cc2ccc(F)cc2)c2cc(N3CCCCC3)c(F)cc12,inactive: -13.7%
2,CC1Cn2cc(C(=O)Nc3cccc(C(F)(F)F)c3)c(=O)c3c(Cl)ccc(c32)O1 (configuration not stated),inactive: -6.13%
3,COC(=O)c1nnn(CC(=O)Nc2ccc(Br)c(C)c2)c1N,inactive: -2.03%
4,C[C@H]1C[C@@H]2[C@H]([C@@H](O)C[C@@]3(C)[C@H]2CC[C@]3(O)C(=O)CO)[C@@]2(C)C=CC(=O)C=C12,inactive: 7.59%
5,Cc1ccc(-n2c(=O)c3c(c4cc(C)ccc4n3C)n(CC(=O)Nc3cc(C)cc(C)c3)c2=O)cc1,inactive: 9.87%
6,CCOC(=O)c1c(-c2ccc(OC)cc2)oc2ccc(OCc3ccc(C(=O)OC)cc3)cc12,inactive: -17.8%
7,CCNc1c(NC(=O)c2cc(OCC)c(OCC)c(OCC)c2)c(=O)oc2ccccc12,inactive: -14.9%
8,CC(NC(=O)C(=O)Nc1c2c(nn1-c1ccc(F)cc1)CSC2)c1ccccc1 (configuration not stated),inactive: -15.9%
9,COc1cccc(CNC(=O)CCn2cccn2)c1,inactive: 1.96%
10,CCCCC/C=C\C/C=C\CCCCCCCC(=O)NC(C)c1ccccc1 (configuration not stated),inactive: -17.4%
11,CCOC(=O)c1c(NC(=O)COc2ccc(F)cc2)sc2c1CCC(C)C2 (configuration not stated),inactive: -26.6% [at 11.5 µM]
12,N#C/C(=C\c1ccc(-c2cc(Cl)ccc2Cl)o1)C(=O)Nc1ccccc1C(=O)O,inactive: 16.1%
13,CC(C)(C)C(=O)Nc1cccc(C(=O)OCc2cc(=O)n3nc(C4CCCCC4)sc3n2)c1,inactive: -5.92%
14,O=C(CSc1nc2ccccc2n1Cc1ccccc1Cl)NCc1ccccc1,inactive: -35.8%
15,CCOC(=O)c1[nH]cnc1C(=O)Nc1ccc(F)cc1,inactive: -10.5%
16,CCCCN(C)CCNC(=O)c1nn(-c2ccc(OC)cc2)c(=O)c2c1c1ccccc1n2C,inactive: -11.1%
17,COc1cccc(CNC(=O)CCNS(=O)(=O)c2ccc3c(c2)oc(=O)n3C)c1,inactive: -7.03%
18,Cc1cc(C)c(Cn2c(C(O)c3ccccc3)nc3ccccc32)c(C)c1 (configuration not stated),inactive: -20.7%
19,CCN(Cc1ccccc1)C(=O)CN1C(=O)COc2ccc(S(=O)(=O)N3CCCCCC3)cc21,inactive: -17.3%
20,CCn1cc2nc(SCc3ccccc3F)n(Cc3ccc(C)cc3)c(=O)c2n1,inactive: -29.3%
21,Cc1ccc(NC(=O)CCS(=O)(=O)c2cccc3nsnc23)c(C)c1,inactive: -8.6%
22,CCOc1ccc(NC(=O)CCS(=O)(=O)c2ccc3c(c2)n(C)c(=O)c(=O)n3C)cc1,inactive: -18.4%
23,Cc1ccc2cccc(NC(=O)C(C)(C)Oc3ccc(Br)cc3)c2n1,inactive: -7.75%
24,CCOc1ccc(NC(=O)CSc2nc(-c3ccc(F)cc3)cc(C(F)(F)F)c2C#N)cc1,inactive: -1.93%
25,CCOC(=O)c1ccccc1NC(=O)Cn1c2ncccc2c(=O)n1-c1ccccc1,inactive: -7.48%

row,SMILES,"activity change, negative = inhibition"
1,Cc1ccc(C)c(N2CCN(Cc3nnc(-c4ccccc4)o3)CC2)c1,inactive: -24.5%
2,COc1cccc(C(=O)c2cn(CC(=O)Nc3cccc(C)c3C)c3nc(C)ccc3c2=O)c1,inactive: 0.276%
3,CCOCCCn1c(SCC(=O)Nc2ccc(OC)cc2OC)nc2ccccc2c1=O,inactive: -17.5%
4,COc1ccc(-c2cn3c(n2)sc2cc(C(=O)Nc4cc(Cl)ccc4C)ccc23)cc1,inactive: 36.8%
5,CCc1ccc(C(=O)Nc2ccc3nn(-c4ccc(C)c(Cl)c4)nc3c2)cc1,inactive: 23.4%
6,Cc1cccc(C)c1NC(=O)Cn1nc(C)c2sc3ccccc3c2c1=O,inactive: -22.1%
7,Cc1ccc(CN2CCc3nc(SCC(=O)Nc4cccc(C)c4C)[nH]c(=O)c3C2)cc1,inactive: -16.5%
8,COc1ccc(N2CC(NC(=O)c3ccc(S(=O)(=O)N4CCCCC4)cc3)CC2=O)cc1OC (configuration not stated),inactive: -32.8%
9,COc1cc(OC)cc(-c2nc3nc(C)c(CCC(=O)Nc4cc(F)ccc4F)c(C)n3n2)c1,inactive: -16.2%
10,CCSc1ncc(Cl)c(C(=O)Nc2c(C(=O)c3ccccc3)oc3ccccc23)n1,inactive: -12.7%
11,Cc1ccccc1CN1CCN(CC(=O)NCc2ccccc2Cl)C1=O,inactive: -6.37%
12,COc1ccc2oc(-c3ccc(C)c(NC(=O)Cc4ccc(Cl)cc4)c3)nc2c1,inactive: -3.19%
13,Cc1c(NC(=O)c2cc(=O)c3cc(Cl)ccc3o2)c(=O)n(-c2ccccc2)n1C,inactive: 1.91% [at 11.5 µM]
14,Fc1ccc2c(c1)NC(c1ccncc1)=NC(c1cccs1)=N2,inactive: -0.401%
15,CCC(=O)Nc1nnc(S(=O)(=O)N2CCc3ccccc32)s1,inactive: -18.8%
16,CCOC(=O)c1ccc(NC(=O)C2CCN(S(=O)(=O)c3ccc(C)cc3)CC2)cc1,inactive: -22.9%
17,CC(=O)c1nn(-c2ccc(OC(F)(F)F)cc2)nc1Nc1ccc(C)cc1,inactive: -7.18%
18,COc1ccccc1CNC(=O)CS(=O)Cc1nc(-c2ccc(OC)c(OC)c2)oc1C (configuration not stated),inactive: -3.86%
19,CCC1CN(C(=O)N2CCC(C(=O)O)CC2)c2cc(C)ccc2O1 (configuration not stated),inactive: -12.5%
20,Cc1ccc(CCNC(=O)c2ccc(CSCc3ccccc3C)o2)cc1,inactive: -1.01%
21,Cc1ccc2nc(-c3ccc(NC(=O)COc4ccc(Cl)c(C)c4)cc3)sc2c1,inactive: 58.5%
22,COc1ccc(Nc2cc(C)c3cc(NC(=O)Cc4c(F)cccc4Cl)ccc3n2)cc1,inactive: -26.6%
23,COc1ccccc1CNC(=O)c1sc2nc3n(c(=O)c2c1C)CCC3,inactive: 12.8%
24,CCOc1ccc(CNS(=O)(=O)c2ccc(-c3cc(C(F)(F)F)on3)s2)cc1,inactive: -11.5%
25,CCCNc1ccc(-c2nc(-c3ccncc3)no2)cc1[N+](=O)[O-],inactive: -6.94%

row,SMILES,"activity change, negative = inhibition"
1,CCOc1ccc(-c2cc(C(=O)NCc3ccc(C)cc3)c3ccccc3n2)cc1,inactive: -8.39%
2,CCOc1ccc(Cl)cc1C1CC(=O)Nc2cc(OC)c(OC)c(OC)c21 (configuration not stated),inactive: 0.243%
3,NC(=O)C(c1ccccc1)(c1ccccc1)[C@@H]1CCN(CCc2ccc3c(c2)CCO3)C1,inactive: -1.14%
4,CCOC(=O)C1CCCN(C(=O)Cn2ncc3c([nH]c4ccc(C)cc43)c2=O)C1 (configuration not stated),inactive: -3.3%
5,CCCC(CCC)C(=O)Nc1cccc(-c2cn3cccnc3n2)c1,inactive: -5.4%
6,COC(=O)c1c(NC(=O)CCCOc2ccccc2C)sc2c1CCC(C)C2 (configuration not stated),inactive: 1.44%
7,COc1ccccc1CNC(=O)CN1C(=O)CCc2cc(S(=O)(=O)N3CCOCC3)ccc21,inactive: -14.4%
8,CCc1ccc(NC(=O)CCCc2nc(-c3ccco3)no2)cc1,inactive: -13%
9,COc1cc2[nH]c(=O)n(CCCC(=O)NCc3ccccc3)c(=O)c2cc1OC,inactive: -6.38%
10,CC1CN(C(=O)N2CCC(C(=O)NCc3ccco3)CC2)c2cc(Cl)ccc2O1 (configuration not stated),inactive: -15.5%
11,COc1ccc(NC(=O)c2cc(-c3ccccc3O)no2)cc1,inactive: 4.16%
12,CCOC(=O)c1cccc(N)c1,inactive: 1.09%
13,COc1ccc(-c2noc(CSc3nnc(-c4ccc(Cl)cc4)n3C)n2)cc1OC,inactive: -13%
14,COc1ccc(CCNC(=O)Cn2cc(S(=O)(=O)Cc3cccc(Cl)c3)c3ccccc32)cc1OC,inactive: -24.2%
15,CCc1cnc2c(c1SCC(=O)Nc1cc(Cl)ccc1OC)c(=O)n(C)c(=O)n2C,inactive: -16.5%
16,CN1CCN(C(=O)Nc2cccc(Cl)c2)c2cccnc21,inactive: 9.43%
17,Cc1ccc(CNC(=O)C2CCCN(S(=O)(=O)c3ccc4c(ccn4C)c3)C2)cc1 (configuration not stated),inactive: 15.7%
18,CCCCN(CCCC)CCNC(=O)c1cc(=O)[nH]c2ccc(S(=O)(=O)N3CCCCCC3)cc12,inactive: -21.9%
19,CC(C)c1ccc(NC(=O)CSc2nc(=O)n(Cc3cccnc3)c3c2CCC3)cc1,inactive: -13.5%
20,Cc1cc(C)c(NC(=O)CSc2ncc(S(=O)(=O)c3ccc(C(C)(C)C)cc3)c(=O)[nH]2)c(C)c1,inactive: -11.9%
21,O=C(NC1CCCC1)c1ccc2c(c1)N(Cc1ccccc1Cl)C(=O)c1ccccc1S2,inactive: -4.02%
22,CCc1ccccc1Nc1nn2c(=O)c3ccc(C(=O)NC4CCCCC4)cc3nc2s1,inactive: 1.66%
23,Cc1ccn2c(=O)c(C(=O)NCc3ccccc3Cl)c(O)nc2c1,inactive: -4.27%
24,COc1ccccc1OCC(O)CN1CCN(CC(=O)Nc2c(C)cccc2C)CC1 (configuration not stated),inactive
25,COC(=O)C(CCSC)NC(=O)c1cc2c(n(-c3ccc(OC)cc3)c1=O)CC(C)(C)CC2=O (configuration not stated),inactive: -10.5%

row,SMILES,"activity change, negative = inhibition"
1,COc1cccc(C(=O)Nc2ccc(NC(=O)c3ccc(C(C)(C)C)cc3)cc2)c1,inactive: -13.8%
2,Cc1ccc(N2CC(NC(=O)C3CCCCC3)CC2=O)cc1C (configuration not stated),inactive: -25%
3,COc1ccc(-c2nc3scc(CCNC(=O)Cc4ccc(F)cc4)n3n2)cc1,inactive: -21.9%
4,CCC(C)NC(=O)c1ccc2nc(Cc3ccccc3)oc2c1 (configuration not stated),inactive: 3.8%
5,CCN(c1ccccc1)S(=O)(=O)c1nnc(NC(=O)c2ccco2)s1,inactive: -16.3%
6,Cc1ccccc1-c1nnc(SCC(=O)N2CCCCC2)o1,inactive: 48.9%
7,Cc1ccc(-n2ncc(C(=O)Nc3c(Cl)cccc3Cl)c2C2CCNCC2)cc1,inactive: -6.72%
8,Cc1csc2nc(COc3ccccc3NC(=O)c3ccccc3Cl)cc(=O)n12,inactive: -7.83%
9,Cn1c(=O)cc(OCC(=O)NCc2ccc(F)cc2Cl)c2ccccc21,inactive: -18.9%
10,COc1ccc(CCNC(=O)CCCn2nc(C)c3sc4ccccc4c3c2=O)cc1OC,inactive: 0.307%
11,Cc1ccc2nc(-c3ccc(Cl)c(NC(=O)c4ccc(Br)o4)c3)oc2c1,inactive: 9.43%
12,O=C(COCc1cc(-c2ccc3c(c2)OCO3)on1)NCc1ccc(F)cc1,inactive: -18.7%
13,Cc1ccc(C)c(N2CCN(S(=O)(=O)c3cc(C(=O)Nc4cc(Cl)cc(Cl)c4)ccc3F)CC2)c1,inactive: -16%
14,Cc1ccc(Cl)cc1NC(=O)c1cc(S(=O)(=O)N2CCCCCC2)cn1C,inactive: -29.4%
15,COc1cc(C2CC(=O)Nc3c2c(C)nn3-c2nncc(-c3ccccc3)n2)cc(OC)c1OC (configuration not stated),inactive: -10.1%
16,O=C(Nc1ccccc1Cl)c1cc2c(-c3ccccc3)nn(-c3ccccc3)c2s1,inactive: 9.04%
17,CCN(c1ccccc1)c1nnc(NC(=O)Nc2ccc(C)cc2)s1,inactive: 1.97%
18,O=C(OCc1cc(=O)n2nc(-c3cccs3)sc2n1)c1ccc(F)cc1,inactive: -0.158%
19,Cc1ccc2nc3c(cc(C#N)c(=O)n3-c3nnc(SCc4ccccc4Cl)s3)c(=O)n2c1,inactive: -5.93%
20,COc1ccc(/C=C/c2nc(C#N)c(N3CCC(C)CC3)o2)cc1OC,inactive: -21.4%
21,COc1ccc(Nc2ncc3c(n2)CCN(Cc2ccc(Br)s2)C3)c(OC)c1,inactive: 17.4%
22,CSc1ccc(CCNC(=O)c2ccc(-n3c(C)cc4c3CCCC4)cc2)cc1,inactive: -12.6%
